According to PubChem BioAssay AID1508642 (National Center for Advancing Translational Sciences (NCATS), 2021):
Out of some 43,000 compounds screened, about 200 (0.47%) were called active. Inconclusive results (about 12%) are left out. The call rests on the fitted dose curve; in most records, active means well fitted cell-killing curve with a large enough effect; inconclusive means small, poorly fitted or top-dose-only effect, or effect the other way; inactive means flat fitted curve, though single readings scatter. Some of the results follow.

assay: Cell viability qHTS assay in S16 Pmp22-F2sN cells; conditions: S16 Pmp22-F2sN Schwann cells viability, CellTiter-Glo, 24 h; series mostly up to 57.5 µM; activity change, negative = cytotoxicity: at the top concentration; further: nearly all actives have a fitted effect of over 65% in size
Procedure, shortened: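 Viability was measured by CellTiter-Glo luminescence (15 min, room temperature). This followed 24 h at 37 °C of compound exposure (23 nL pin transfer) in S16 Pmp22-F2sN Schwann cells, 500-1,000 per well.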
On the % scale 0 is the no-effect control and ±100 the full control effect.

Structure (SMILES) | activity change, negative = cytotoxicity
COc1cccc2cc(-c3nnc(Nc4ccccc4C)s3)c(=O)oc12 | inactive: 4.88%
Cc1cccc(NC(=O)CSc2nnc(-c3cccs3)o2)c1 | inactive: -7.29%
Cc1cccc(NC(=O)C(c2ccccc2)N2Cc3ccccc3C2=O)c1C (centres undefined) | inactive: 2.19%
Cc1noc2ncnc(Nc3ccc(F)cc3)c12 | inactive: -0.48%
Cc1ccc(CCNC(=O)NCc2noc3ccc(C)cc23)cc1 | inactive: 4.74%
CCOc1ccc(-c2cc3nc(C4CCN(C(=O)OC(C)(C)C)CC4)c(C(=O)Nc4ccc(C(=O)OC)cc4)cn3n2)cc1 | inactive: 4%
Cc1cc(C)cc(N2C(=O)CS(=O)(=O)C23C(=O)N(Cc2ccc(F)cc2)c2ccc(C)cc23)c1 (centres undefined) | inactive: 2.01%
COc1ccc(NC(=O)Cn2c(=O)nc(-c3ccccc3)c3ccccc32)cc1OC | inactive: 1.86%
COc1ccc(NC(=O)c2cccc(N3CCCS3(=O)=O)c2)cc1 | inactive: 3.37%
NC(=O)CSc1ncc2c(n1)-c1ccccc1N(Cc1ccccc1)S2(=O)=O | inactive: 2.33%
Cc1ccc(-c2noc(CCC(=O)Nc3ccc(F)cc3Cl)n2)cc1 | inactive: 1.62%
Cc1nn(C)c2c1c(-c1ccccc1)cc(=O)n2Cc1ccccc1F | inactive: -9.44%
Cc1cc(C)c2c(=O)cc(C(=O)NCCc3ccc(S(N)(=O)=O)cc3)oc2c1 | inactive: 14.9%
CCOc1ccc(Sc2cc(C(=O)NCc3ccc(F)cc3)c3ccccc3n2)cc1 | inactive: -1.47%
CC(=O)CSc1nc(-c2ccccc2)[nH]c1S(=O)(=O)c1ccc(C)cc1 | inactive: -3.17%
CCn1cc(C(=O)N2CCN(c3ccccc3)CC2)c(=O)c2cc(S(=O)(=O)N(C)C3CCCCC3)ccc21 | inactive: -0.475%
CCC(C)NC(=O)Cn1ncc2c(C)n(Cc3ccc(F)cc3)c(C)c2c1=O (centres undefined) | inactive: 0.144%
CCc1ccc(CNC(=O)c2nn(-c3ccc(C)c(C)c3)nc2CO)cc1 | inactive: -0.559%
Cc1ccc2c(=O)cc(C(=O)Nc3sc4c(c3C(=O)NCc3ccco3)CCCC4)oc2c1C | inactive: 20.9%
COC(=O)c1ccc(Cn2c(=O)cc(C)c3c(C)nn(C)c32)cc1 | inactive: 4.64%
Cc1cc(=O)[nH]c2nnc(SCC(=O)Nc3cc(C(F)(F)F)ccc3Cl)n12 | inactive: -11.7%
O=C(CN1C(=O)CCSc2ccc(S(=O)(=O)N3CCCC3)cc21)Nc1cccc(Cl)c1 | inactive: 1.24%
CCN(CC)S(=O)(=O)c1ccc2c(c1)N(CC(=O)NCc1ccccc1)C(=O)CS2 | inactive: 3.95%
COc1cc(Cl)c(C)cc1NC(=O)CSc1cc(=O)n(C)c2cc(Cl)ccc12 | inactive: 9.76%
Cn1ncc2c(NCc3cccc(Cl)c3)ncnc21 | inactive: -20.5%

Structure (SMILES) | activity change, negative = cytotoxicity
CCOc1ccc(NC(=O)Nc2c(C)n(C)n(-c3ccccc3)c2=O)cc1 | inactive: 10.4%
CN(C)c1ccc(C(CNC(=O)COc2ccccc2)N2CCOCC2)cc1 (centres undefined) | inactive: 4.23%
COC(=O)c1scc(-c2ccc(C)cc2)c1S(=O)(=O)N1CCN(c2cccc(OC)c2)CC1 | inactive: 12.3%
Fc1ccc(Nc2c3c(nc4ccccc24)CCC3)cc1 | inactive: -3.59%
CCc1nnc(SC(CC)C(=O)Nc2cccc(OC)c2)c2cc3oc(C)cc3n12 (centres undefined) | inactive: -8.3%
Cc1ccc(Sc2c(C)nn(C(C)(C)C)c2OC(=O)C(C)(C)C)cc1 | inactive: -1.4%
CCc1ccc(CN(Cc2ccco2)c2cnc(S(C)(=O)=O)nc2C(=O)Nc2ccccc2Cl)cc1 | inactive: 5.65%
CCN(C(=O)C1CCCN(S(=O)(=O)c2c(C)noc2/C=C/N(C)C)C1)c1cccc(C)c1 (centres undefined) | inactive: -17.2%
CCN(c1ccccc1)c1nnc(NC(=O)Nc2ccccc2F)s1 | inactive: 4.65%
O=C(NCc1ccco1)c1ccc2c(c1)N(Cc1ccc(Cl)cc1)C(=O)c1ccccc1S2=O (centres undefined) | inactive: 1.98%
CCOC(=O)c1ccc(NC(=O)CC2C(=O)OCCN2CC)cc1 (centres undefined) | inactive: 4.95%
CCOc1ccccc1NC(=O)CN(C)S(=O)(=O)c1ccc2nc(C)sc2c1 | inactive: 15.3%
CCC(=O)N1CCc2cc(Br)cc(S(=O)(=O)CCC(=O)NCc3ccc(Cl)cc3)c21 | inactive: -2.98%
Cc1nc(Oc2ccc(F)cc2Cl)c2oc3ccccc3c2n1 | inactive: 2.21%
Cc1ccc(C)c(NC(=O)CN2C(=O)C(C)(C)c3ccccc32)c1 | inactive: 12.7%
COc1ccc(Br)cc1CNC(=O)c1cc2n(n1)CCCN(Cc1ccc(C)cc1)C2=O | inactive: -14.8%
O=C(Nc1sc2c(c1C(=O)NCc1ccco1)CCCC2)c1cc(=O)c2ccccc2o1 | inactive: 1.79%
Cc1ccc(CNC(=O)CC(C)S(=O)(=O)c2cc3c(cc2C)NC(=O)CO3)cc1 (centres undefined) | inactive: 7.84%
CSC1=NC2(CCN(C(=O)NC3CCCCC3)CC2)N=C1c1ccc(C)c(C)c1 | inactive: -14.2%
Cc1ccc(NC(=O)CCc2nnc3n(C)c(=O)c4sccc4n23)cc1C | inactive: -4.55%
CC(C)Oc1ccc(C(=O)N(Cc2ccco2)c2ccccn2)cc1 | inactive: 0.322%
Cc1ccc(C2c3[nH]c4ccccc4c3CCN2C(=O)c2cccc(C)c2)cc1 (centres undefined) | inactive: 5.02%
CC(C)Nc1ccc(-c2nc(-c3ccco3)no2)cc1[N+](=O)[O-] | inactive: -9.86%
CCOCCCNC(=O)C(c1ccc(C)cc1)N(Cc1ccc2c(c1)OCO2)C(=O)c1ccc(NC(C)=O)cc1 (centres undefined) | inactive: -19%
